Source: PubChem BioAssay AID686979 (National Center for Advancing Translational Sciences (NCATS), 2013)
Hit rate of the full screen: of about 420,000 compounds, about 50,000 (12%) were called active. The shares of active, inactive and inconclusive entries below differ from those in the screen. Calls come from the whole dose curve; as a rule, active = well fitted inhibition curve with a large enough effect; inconclusive = small, poorly fitted or top-dose-only effect; inactive = flat fitted curve, though single readings scatter. No potency is given beside an inconclusive call; the fits are too rough.
Potency is the fitted concentration of half-maximal effect; tags give direction and shape of the fitted curve.

Assay: qHTS for Inhibitors of human tyrosyl-DNA phosphodiesterase 1 (TDP1): qHTS in cells in presence of CPT; note: nearly all actives have a fitted effect of over 55% in size
Conditions: chicken DT40 Tdp1-/-;hTDP1 cells + 20 nM CPT, ATP luminescence, 48 h; series mostly up to 46.2 µM
Summary of the method: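 Cell growth measured by CellTiter-Glo luminescence after a minimum 48 h, 37 C compound exposure with 20 nM CPT in Tdp1-knockout DT40 cells stably expressing hTDP1, seeded 400/well; qHTS titration format.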
With `COc1ccc(C2=CC(c3cc(OC)c(OC)c(OC)c3)NC(=S)N2)cc1` (stereo not drawn) the Potency was inconclusive [inhibitor, single point].
With `COc1cccc(CN(C)C(=O)c2[nH]c(C)c(C(C)=O)c2C)c1OC` the Potency was active: 18.4 µM.
With `CCC(C)(C)NC(=O)c1cc(S(=O)(=O)N2CCCCC2)ccc1N1CCOCC1` the Potency was “inactive”.
In the case of `CSc1nc(C)c(CCO)c(=O)[nH]1`, the Potency is reported as “inactive”.
For `O=C(CSc1nc2ccccc2c(=O)n1Cc1ccco1)NCc1ccco1`, the Potency was inconclusive [inhibitor, partial curve, poor fit].
For `COc1ccc(CCNC(=O)Cc2cc(OCc3ccccc3)c(OC)cc2[N+](=O)[O-])cc1OC`, the Potency was inconclusive [inhibitor, single point].
With `CC(C)(c1ccccc1)c1ccc(OCCN2CCCC2)cc1` the Potency was inconclusive [inhibitor, single point].
For `COc1ccc(-c2nnn3c2nc(NCc2ccccc2)c2ccccc23)cc1`, the Potency was “inactive”.
With `CN(C)/N=C/C=C1\CCC/C(=C/c2cccs2)C1=O` the Potency was inconclusive [inhibitor, single point].
For `O=[N+]([O-])c1ccc2oc(-c3cccc(O)c3)nc2c1`, the Potency was inconclusive [inhibitor, single point].
With `CCCCCCCCCCCCCCCCCCNc1ccn(C2OC(COP(=O)(O)OCC3OC(n4cc(F)c(=O)[nH]c4=O)CC3O)C(O)C2O)c(=O)n1` (stereo not drawn) the Potency was active: 0.13 µM.
For `CCCCNc1c(-c2ccc(OC)c(SC3CCCCC3)c2)nc2ccc(Cl)cn12`, the Potency was active: 20.6 µM.
In the case of `NC(CCc1ccccc1)c1csc(Nc2nccc(C(F)(F)F)n2)n1` (stereo not drawn), the Potency is reported as inconclusive [inhibitor, single point].
In the case of `CC1(C(=O)Nc2ccc3nc[nH]c3c2)CCN1C(=O)C1(c2ccccc2)CC1` (stereo not drawn), the Potency is reported as inconclusive [inhibitor, single point].
With `c1ccc2sc(Nc3nc4cc5c(cc4s3)OCO5)nc2c1` the Potency was active: 23.1 µM.
For `CCN(CC)CC(O)c1ccc2ccc3ccc(O)cc3c2c1` (stereo not drawn), the Potency was inconclusive [inhibitor, single point].
In the case of `COc1ccc(/C=C/C(=O)OCC(=O)NC2CCCCCCC2)cc1`, the Potency is reported as inconclusive [inhibitor, single point].
In the case of `COc1cccc(NC(=O)c2oc3ccccc3c2NC(=O)COc2ccccc2C)c1`, the Potency is reported as “inactive”.
In the case of `CCOC(=O)[C@]12CCCC=C1N(Cc1cccc3ccccc13)C(=O)[C@H](CC(=O)NCC1CCCCC1)C2`, the Potency is reported as inconclusive [inhibitor, single point].
With `CCCC[C@@H]1CNC(=S)N1CCC12CC3CC(CC(C3)C1)C2` the Potency was inconclusive [inhibitor, single point].
For `Cc1cc(C)c(S(=O)(=O)NC2CCN(Cc3ccccc3)CC2)c(C)c1`, the Potency was inconclusive [inhibitor, single point].
With `O=C(NCc1ccc(Br)cc1)OC1CC2CC1[C@H]1CCCCN1C2=O` (stereo partly drawn) the Potency was “inactive”.
In the case of `CCN(CC)CCn1c(=N)n(CC(O)COc2ccccc2)c2ccccc21` (stereo not drawn), the Potency is reported as inconclusive [inhibitor, single point].
For `CCCc1cc(C(=O)OCC(=O)N(CCC)c2c(N)n(Cc3ccccc3)c(=O)[nH]c2=O)sc1C`, the Potency was inconclusive [inhibitor, single point].
With `Cc1cccc2c(N=O)c(O)[nH]c12` the Potency was inconclusive [inhibitor, single point].
With `CCS(=O)(=O)N1Cc2ccccc2CC1C(=O)Nc1ccc(NC(C)=O)cc1` (stereo not drawn) the Potency was “inactive”.
With `Cc1ccccc1NC(=O)CSc1nc2c(c(-c3ccco3)c1C#N)CCCC2` the Potency was inconclusive [inhibitor, single point].
In the case of `CCOC(=O)c1sc(NC(=O)CCSC)nc1C`, the Potency is reported as inconclusive [inhibitor, single point].
For `Cc1cc(C)n(CC(=O)NNC(=O)COc2ccc(Cl)cc2Cl)n1`, the Potency was “inactive”.
For `Cc1ccc(C(C)C)c(OCCNC(=S)Nc2cccc3ccccc23)c1`, the Potency was active: 14.1 µM.
In the case of `Cc1cc(C)n(CCc2nc(-c3ccc(C(C)(C)C)cc3)cs2)n1`, the Potency is reported as active: 23.1 µM.
For `COc1ccccc1-c1nc(NCc2cnc(C)cn2)c2ccccc2n1`, the Potency was active: 16.4 µM.
With `CCOC(=O)Nc1ccc(N2CCOCC2)c(S(=O)(=O)Nc2ccc(Cl)cc2)c1` the Potency was inconclusive [inhibitor, single point].
For `COc1ccc([C@H]2C[C@H](O)[C@@H](n3cc(COC(=O)c4ccccc4)nn3)CN2CC2CCCCC2)cc1`, the Potency was active: 23.1 µM.
With `CCc1cccc(CC)c1NC(=O)CCS(=O)(=O)c1ccc(Br)cc1` the Potency was inconclusive [inhibitor, single point].
For `Oc1ccc(Cl)c(CN2CCN(c3ncc(Cc4ccccc4)cn3)CC2)c1`, the Potency was inconclusive [inhibitor, single point].
For `CC(C)c1ccc(C(=O)N2CCCCC2c2cc(C(=O)Nc3ccncc3)no2)cc1` (stereo not drawn), the Potency was active: 16.4 µM.
With `Cc1ccccc1C(=O)N1CCN(CCNC(=O)C(=O)Nc2ccc(Br)cc2)CC1` the Potency was active: 14.6 µM.
For `CCOC(=O)C1CCN(C(=O)C2CCN(S(=O)(=O)c3cccc4nsnc34)CC2)CC1`, the Potency was inconclusive [inhibitor, single point].
In the case of `COc1ccc(-c2ccc(NS(=O)(=O)c3ccccc3)cc2)nn1`, the Potency is reported as inconclusive [inhibitor, single point].
With `COc1ccc(C(CNC(=O)CNC(=O)c2ccccc2)N2CCCC2)cc1` (stereo not drawn) the Potency was “inactive”.
With `CCOc1ccc(-c2cc(C(=O)NCc3ccc(OCC)c(OC)c3)[nH]n2)cc1` the Potency was “inactive”.
For `Cc1ccc(NC(=O)CSc2ncccc2C(=O)Oc2ccccc2Cl)cc1Cl`, the Potency was inconclusive [inhibitor, single point].
In the case of `O=C(O)c1cccc2c1C(=O)c1ccc(-c3ccc(F)cc3F)cc1S2(=O)=O`, the Potency is reported as “inactive”.
For `CC1(C(=O)Nc2cccc(OC(F)(F)F)c2)Cc2c(-c3cccc(C(N)=O)c3)ccnc2O1` (stereo not drawn), the Potency was inconclusive [inhibitor, single point].
With `CC(CN(C)C)CN1c2ccccc2S(=O)(=O)c2ccccc21` (stereo not drawn) the Potency was “inactive”.
With `Cc1ccc(-n2c(=O)c3sccc3n(CC(=O)NCC3CCCO3)c2=O)cc1F` (stereo not drawn) the Potency was “inactive”.
With `CCCCC(O)C1=C[N+](=O)CC=C1` (stereo not drawn) the Potency was “inactive”.
For `Cc1cc(C)n2nc(SCC(=O)Nc3ccc(O)cc3)nc2n1`, the Potency was “inactive”.
With `CCc1ccccc1NC(=S)NCc1ccc2c(c1)OCO2` the Potency was inconclusive [inhibitor, single point].
For `CC(C)CN1CCC(=O)N([C@H](COc2ccccc2)Cc2ccccc2)CC1`, the Potency was active: 23.1 µM.
With `Cc1nc(Nc2cccc(Cl)c2)c2oc3ccccc3c2n1` the Potency was active: 16.4 µM.
In the case of `Cc1ccc(-c2cc(-c3n[nH]c(=S)n3C)c3ccccc3n2)cc1`, the Potency is reported as inconclusive [inhibitor, single point].
For `COc1ccc(-n2c(SCC(=O)O)nc3sc4c(c3c2=O)CCCC4)cc1`, the Potency was “inactive”.
With `CCCc1cc2c(=O)c(-c3ccc4c(c3)OCCO4)coc2cc1OS(C)(=O)=O` the Potency was inconclusive [inhibitor, single point].
With `Cc1ccccc1-c1nc2c(c(SCc3cccc(Cl)c3)n1)Cc1c(CO)cnc(C)c1O2` the Potency was inconclusive [inhibitor, single point].
For `CC(=O)c1ccc(N2CCN(C(=S)Nc3ccccc3F)CC2)cc1`, the Potency was inconclusive [inhibitor, single point].
With `N#Cc1ccc(S(=O)(=O)N2CCCCC2c2cc(C(=O)NCc3ccccc3)no2)cc1` (stereo not drawn) the Potency was inconclusive [inhibitor, partial curve, poor fit].
In the case of `O=C1OCC2=C1C(c1ccc(F)cc1)c1cc3c(cc1N2)OCO3` (stereo not drawn), the Potency is reported as active: 0.164 µM.
With `COc1cc(NC(=O)c2cc3c(CO)cnc(C)c3oc2=Nc2cccc(C(N)=O)c2)cc(OC)c1` the Potency was “inactive”.
In the case of `Cc1cccc(-n2c(O)c(C=Nc3ccccc3-c3n[nH]c(=S)[nH]c3=O)c3ccccc3c2=O)n1`, the Potency is reported as inconclusive [inhibitor, single point].
With `C=CCNC(=S)/N=c1/ccccn1C` the Potency was “inactive”.
For `Cc1nn(Cc2ccc(C(=O)Nc3ccc(C(=O)OC(C)C)cc3)o2)c(C)c1Cl`, the Potency was inconclusive [inhibitor, single point].
With `CCOC(=O)c1cc(-c2ccccc2)n(CCC(=O)Nc2ccc(OC)c(Cl)c2)c1C` the Potency was active: 16.4 µM.
For `Cc1nn(-c2ccccc2)c(N)c1N=O`, the Potency was “inactive”.
With `NC(=O)c1ccsc1NC(=O)COC(=O)Cc1c[nH]c2ccccc12` the Potency was inconclusive [inhibitor, single point].
With `COc1ccc(-c2cc(C(=O)OCC(=O)N3CCOCC3)c3ccccc3n2)cc1` the Potency was “inactive”.
In the case of `CC(N)c1csc(Nc2nncc3ccccc23)n1` (stereo not drawn), the Potency is reported as inconclusive [inhibitor, single point].
With `Cc1ccc(-c2cc(C(=O)N3CCN(c4ncccn4)CC3)c3ccccc3n2)cc1` the Potency was inconclusive [inhibitor, single point].
With `N#Cc1c(NCCN)nc(-c2ccco2)c2c1CCCC2` the Potency was inconclusive [inhibitor, single point].
For `COc1cc(-c2nc(Cn3nnc(C(=O)Nc4ccccc4C)c3C)c(C)o2)cc(OC)c1OC`, the Potency was “inactive”.
For `COc1ccc2[nH]c(=O)c(CN(C(C)=O)c3cc(C)ccc3C)cc2c1`, the Potency was “inactive”.
With `O=C(Nc1ccccc1Cl)c1cc(C2CCCN(C(=O)CCCc3ccccc3)C2)on1` (stereo not drawn) the Potency was “inactive”.
